About 25,000 (6.9%) of roughly 360,000 compounds were called active. Inconclusive results, whose numbers are uncertain, are shown with a selection of clear calls. The call rests on the fitted dose curve; in most records, active means well fitted inhibition curve with a large enough effect; inconclusive means small, poorly fitted or top-dose-only effect; inactive means flat fitted curve, though single readings scatter. A potency beside an inconclusive call is a rough fit, not a confirmed value.
target: Luciferin 4-monooxygenase (Photinus pyralis) (UniProt P08659); experiment: qHTS profiling assay for firefly luciferase inhibitor/activator using purifed enzyme and Km concentrations of substrates (counterscreen for miR-21 project); details: purified FLuc, luminescence inhibition; series mostly up to 57.5 µM; activity change, negative = inhibition: at the top concentration; further: nearly all actives have a fitted effect of over 55% in size;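 on activity change, negative = inhibition: plate controls were vehicle for no effect and reference inhibitor for full effect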
Summary of the method: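 Purified P. pyralis luciferase, 10 nM final, with Km-level 10 uM D-luciferin and 10 uM ATP in 50 mM Tris acetate pH 7.5, 10 mM Mg acetate, 0.01% Tween-20, 0.05% BSA; 6-point qHTS titration about 60 µM downward; luminescence read.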
Potency means the concentration at half of the fitted maximal effect; tags describe the fitted curve by direction and shape.

Chain of UniProt P08659 (P08659 whole entry, looked up): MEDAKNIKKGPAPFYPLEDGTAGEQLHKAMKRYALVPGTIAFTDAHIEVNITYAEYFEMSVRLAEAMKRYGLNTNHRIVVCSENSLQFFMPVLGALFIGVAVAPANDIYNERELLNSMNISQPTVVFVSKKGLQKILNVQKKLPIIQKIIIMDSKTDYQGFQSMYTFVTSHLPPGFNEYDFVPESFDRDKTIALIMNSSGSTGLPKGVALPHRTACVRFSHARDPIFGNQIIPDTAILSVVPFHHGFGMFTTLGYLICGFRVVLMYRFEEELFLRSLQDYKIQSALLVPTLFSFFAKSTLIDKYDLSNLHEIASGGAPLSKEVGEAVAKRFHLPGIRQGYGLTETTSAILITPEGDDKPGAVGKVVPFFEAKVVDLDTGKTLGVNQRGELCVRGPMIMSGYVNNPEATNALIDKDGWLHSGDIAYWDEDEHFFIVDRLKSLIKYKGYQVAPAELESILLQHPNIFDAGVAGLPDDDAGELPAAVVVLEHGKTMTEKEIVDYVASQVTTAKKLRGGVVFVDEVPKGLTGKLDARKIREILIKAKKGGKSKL

| SMILES | activity change, negative = inhibition | Potency |
| --- | --- | --- |
| COC(=O)C1=C(C)N(Cc2cccnc2)C(=O)/C1=C\c1sccc1C | inactive: -7.09% | – |
| O=C(CCCOc1ccccc1)Nc1ccc2c(c1)OCCO2 | – | active: 12 µM |
| O=C(Nc1cccc(Cl)c1)c1cc(-c2ccc3c(c2)OCO3)on1 | – | inconclusive: 0.135 µM [inhibitor, full curve] |
| Cc1ccc(SCCC(=O)OCC(=O)Nc2ncc(Cl)cc2Cl)cc1 | – | inconclusive: 23.9 µM [inhibitor, partial curve, poor fit] |
| COC(=O)CSc1nc(C)c2c(n1)CCCC2 | – | inconclusive: 33.8 µM [inhibitor, partial curve, poor fit] |
| COC(=O)c1ccc(C2C(C(=O)c3ccco3)=C(O)C(=O)N2CC2CCCO2)cc1 (stereo not drawn) | inactive: 0.0577% | – |
| COc1ccc(/C=C2\Cc3ccccc3C2=O)cc1OC | – | active: 3.38 µM |
| Cc1ccc2nc(-c3cccc(S(=O)(=O)N(C)C)c3)cn2c1 | – | inconclusive: 26.9 µM [inhibitor, single point] |
| Fc1ccccc1-c1nc2ncccc2o1 | – | inconclusive: 21.3 µM [inhibitor, partial curve, poor fit] |
| COCCn1c(C)cc(C(=O)COC(=O)c2ccc(N3CCCC3=O)cc2)c1C | – | inconclusive: 23.9 µM [inhibitor, single point] |
| FC(F)(F)c1cnc(-c2cnc(-c3cccnc3)nc2)c(Cl)c1 | – | inconclusive: 8.49 µM [inhibitor, partial curve, poor fit] |
| CC(C)c1ccc(OCc2ccc(C(=O)O)o2)cc1 | – | active: 0.426 µM |
| C/C(=N\NC(=O)c1ccccc1O)c1cccc(NC(=O)c2ccccc2)c1 | – | active: 10.7 µM |
| COC(=O)c1sccc1S(=O)(=O)N(CC(=O)NCc1ccc(C)cc1)c1ccc(C)c(C)c1 | inactive: -9.28% | – |
| CC(Oc1ccc(Cl)cc1)c1ccc(C#N)c(=O)[nH]1 (stereo not drawn) | – | inconclusive: 19 µM [inhibitor, partial curve] |
| CC(=O)c1c(C)oc2c1cc(NS(=O)(=O)c1c(C)cc(C)cc1C)c1ccccc12 | – | inconclusive: 23.9 µM [inhibitor, partial curve, poor fit] |
| CCOC(=O)C1=C(C)N=C2SCCC(=O)N2C1c1ccc(OCc2ccccc2)c(OC)c1 (stereo not drawn) | inactive: -0.32% | – |
| O=C(COC(=O)c1cnccn1)c1ccc2c(c1)CCCC2 | – | active: 4.78 µM |
| Oc1ccccc1C1CCCCC1c1ccccc1 (stereo not drawn) | inactive: -10.4% | – |
| O=C(O)c1ccc(N/N=C/c2cn(Cc3ccccc3F)c3ccccc23)cc1 | – | active: 21.3 µM |
| CC(=O)n1cc(/C=N/NC(=O)c2cccc(O)c2)c2ccccc21 | – | active: 9.53 µM |
| O=C(Nc1nccs1)c1sc2cc(Cl)ccc2c1Cl | – | active: 2.69 µM |
| CCOc1ccc(NC(=O)Nc2cnccn2)cc1 | – | inconclusive: 8.49 µM [inhibitor, partial curve, poor fit] |
| S=C(c1ccc(-c2ccccc2)cc1)N1CCOCC1 | – | inconclusive: 37.9 µM [inhibitor, partial curve, poor fit] |
| Cc1ccc(CNS(=O)(=O)c2ccc(CN3C(=O)c4cccnc4C3=O)cc2)o1 | inactive: 1.78% | – |

| SMILES | activity change, negative = inhibition | Potency |
| --- | --- | --- |
| COc1ccc(-c2nc3scc(CCNS(=O)(=O)c4ccc(Oc5ccccc5)cc4)n3n2)cc1 | – | inconclusive: 19 µM [inhibitor, partial curve, poor fit] |
| CSCCC(NC(=O)c1ccco1)C(=O)Nc1ccc(C)cn1 (stereo not drawn) | – | inconclusive: 23.9 µM [inhibitor, single point] |
| CCCn1cnc2c(sc3nc4c(cc32)CSC(C)(C)C4)c1=O | – | inconclusive: 2.69 µM [inhibitor, full curve] |
| CCSc1nnc(NC(=O)COc2ccccc2[N+](=O)[O-])s1 | – | inconclusive: 23.9 µM [inhibitor, partial curve] |
| CC1CCN(c2ccc(-c3ccc(NC(=O)C(F)(F)F)cc3)nn2)CC1 | – | inconclusive: 8.49 µM [inhibitor, partial curve] |
| Cc1c(NC(=O)c2cccc(-c3cc4ccccc4oc3=O)c2)cccc1-c1nc2ncccc2o1 | – | inconclusive: 23.9 µM [inhibitor, partial curve, poor fit] |
| CCOc1ccc(C(=O)Cc2cc3cccc(OC)c3oc2=O)cc1 | – | inconclusive: 26.9 µM [inhibitor, partial curve, poor fit] |
| COc1ccc(C2=CC(=O)C=CC2=O)cc1 | – | active: 8.49 µM |
| Nc1nnc(CSCc2ccc(Cl)cc2)s1 | – | inconclusive: 37.9 µM [inhibitor, partial curve, poor fit] |
| Cc1cc(NC(=S)N(Cc2cccc(Br)c2)CC2CCC(C(=O)O)CC2)ccc1Cl (stereo not drawn) | – | inconclusive: 26.9 µM [inhibitor, partial curve, poor fit] |
| COc1cc(/C=C/C(=O)OCC(=O)Nc2nnc(-c3ccccc3)o2)cc(OC)c1OC | inactive: -1.89% | – |
| Cc1cccc(CCn2c(=O)c3ccccc3n(CC(=O)Nc3ccccc3F)c2=O)c1 | inactive: 2.56% | – |
| c1ccc2c(c1)oc1c(Nc3ccc4c(c3)OCCO4)ncnc12 | – | active: 2.39 µM |
| COc1cc(/C=N/N=C(\N)c2nonc2N)cc(OC)c1OC | – | inconclusive: 23.9 µM [inhibitor, single point] |
| Cc1cc2c(cc1NC(=O)c1ccccc1Cl)n(C)c(=O)c(=O)n2C | inactive: -1.69% | – |
| CCn1c2ccccc2c2nc3cc(OC)c(OC)cc3nc21 | – | active: 8.49 µM |
| CCOC(=O)c1c(C)[nH]c(C2=NNC(=Nc3ccccc3)SC2)c1C | – | active: 12 µM |
| Nc1cccc(-n2cccc2)c1 | inactive: -9.1% | – |
| O=C(Nc1cccc(C(F)(F)F)c1)c1cc(-c2cccs2)on1 | – | inconclusive: 9.53 µM [inhibitor, partial curve] |
| O=C(Nc1ccc(C(=O)O)cc1)/C(=C\c1ccccc1)NC(=O)c1ccccc1 | – | inconclusive: 37.9 µM [inhibitor, partial curve, poor fit] |
| Cc1ccc2c(CN(C)Cc3ccccc3)cc(=O)oc2c1C | – | active: 15.1 µM |
| COc1ccc(-c2nc(-c3cccs3)no2)cc1 | – | active: 0.0849 µM |
| Cc1cc(C)cc(NC(=O)c2ccc(N3C(=O)C4CCCCC4C3=O)cc2)c1 (stereo not drawn) | – | inconclusive: 37.9 µM [inhibitor, partial curve, poor fit] |
| COc1ccc(-c2noc(N3CCCC(C(=O)Nc4ccc(C(C)=O)cc4)C3)n2)cc1 (stereo not drawn) | – | active: 10.7 µM |
| CCN(CCO)c1ccc(NC(=S)Nc2cccc(S(=O)(=O)N(C)C)c2)cc1 | – | inconclusive: 30.1 µM [inhibitor, partial curve, poor fit] |

| SMILES | activity change, negative = inhibition | Potency |
| --- | --- | --- |
| CCOC(=O)c1c(-c2ccc(OC)cc2)csc1NC(=O)CSc1nnc(C)c(=O)[nH]1 | – | inconclusive: 37.9 µM [inhibitor, single point] |
| O=C(COC(=O)c1ccccc1O)NCCC1=CCCCC1 | – | inconclusive: 23.9 µM [inhibitor, partial curve] |
| COc1ccc(NC(=O)Cn2ncn3nc(-c4ccc(OC)cc4)cc3c2=O)cc1 | – | inconclusive: 21.3 µM [inhibitor, single point] |
| Cc1cccc(NC(=O)Cn2c(/C=C/c3ccccc3)nc3ccccc32)c1 | – | active: 3.01 µM |
| CCOc1ccc(-c2ccc(SC)nn2)cc1 | – | active: 0.478 µM |
| Nc1cc2nn(-c3ccccc3)nc2cc1Cl | – | active: 1.35 µM |
| O=C(Nc1nc(-c2nc3ccccc3s2)cs1)c1ccco1 | – | inconclusive: 12 µM [inhibitor, partial curve] |
| COc1ccc(/C=N/N2C(=O)CSC2=S)cc1Br | – | inconclusive: 13.5 µM [inhibitor, partial curve, poor fit] |
| COc1cccc(CCNC(=O)c2cnc3sc(N4CCOCC4)nn3c2=O)c1 | inactive: 4.05% | – |
| COc1ccc(C(C)(C)C)cc1NC(=O)CSc1ncn[nH]1 | – | inconclusive: 26.9 µM [inhibitor, partial curve, poor fit] |
| Cc1ccc(NC(=O)CSc2nc(-c3ccco3)nc3cc(=O)[nH]n23)cc1 | – | inconclusive: 21.3 µM [inhibitor, partial curve, poor fit] |
| CN(CC(=O)Nc1ccccc1Cl)C(=O)c1ccc(COc2ccccc2)cc1 | – | inconclusive: 26.9 µM [inhibitor, partial curve, poor fit] |
| CC(C)CC(COCc1ccc(Cl)cc1)N1CCN(C(=O)c2ccc(Cl)cc2Cl)CCC1=O (stereo not drawn) | inactive: 3.1% | – |
| COc1ccc(/C=N/NC(=O)CCCOc2ccc(Cl)cc2Cl)cc1[N+](=O)[O-] | – | inconclusive: 23.9 µM [inhibitor, single point] |
| COc1ccc(-c2onc3ccc(C(=O)/C=C/N(C)C)cc23)cc1 | – | inconclusive: 16.9 µM [inhibitor, partial curve] |
| C/C(=N\NC(=O)c1c[nH]c2ccccc12)c1ccc(C)s1 | – | inconclusive: 7.57 µM [inhibitor, partial curve] |
| Cc1ccccc1C(=O)N1c2ncnn2C2(CCCCC2)[C@@H]2CCCC[C@@H]21 | inactive: 1.77% | – |
| S=c1[nH]nc(-c2ccc3ccccc3n2)n1-c1ccc2ncccc2c1 | – | inconclusive: 13.5 µM [inhibitor, partial curve, poor fit] |
| C/C(=N\OCC(=O)N/N=C/c1ccc(C)cc1O)c1cccs1 | – | inconclusive: 26.9 µM [inhibitor, single point] |
| Cc1ccc(S(=O)(=O)CCC(=O)OCC(=O)Nc2cc(S(=O)(=O)N3CCOCC3)ccc2C)cc1 | inactive: 2.06% | – |
| O=C(NCCn1cc(SCc2ccc(F)cc2)c2ccccc21)c1cccs1 | inactive: -10.2% | – |
| CC(=O)c1ccc(NC(=O)CCc2c(C)nn(-c3ccc4nnc(C)n4n3)c2C)cc1 | inactive: -0.068% | – |
| COc1ccc(CCNC(=O)C(=O)c2c[nH]c3ccccc23)cc1OC | – | inconclusive: 12 µM [inhibitor, partial curve] |
